We go through eight cell lines from the supplement of paper PMC4967469.

Lines with a small IC50 respond at low doses; a limit (>, <) means that the fit lies beyond the doses tested. AUC, from the same fit, is the share of area under the viability curve across the 256-fold dose range; values near 1 show little effect. The top dose, if marked as inferred, was calculated from the reported fits.

A word on the IC50: it is the concentration at which inhibition is half-maximal.

Experiment in all cases: Viability of human cancer cell lines after 72 h of drug (GDSC screen)
Compound in one assay: O=c1cc(N2CCOCC2)oc2c(-c3cccc4c3sc3ccccc34)cccc12 [NU-7441]
The settings on record: top dose 2 µM; top dose inferred. As to the method: (§1)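 Human cancer cell lines in 384-well plates, medium with 10% serum, drug for 72 h over a 256-fold dose range (nine 2-fold or five 4-fold steps up to the top dose). Adherent lines were fixed and stained with the nucleic acid dye Syto60, suspension lines read with resazurin; signal relative to control wells, capped at 0 and 100%. One two-parameter sigmoid per drug and line, fitted in a mixed model over all curves with the slope shared within a line.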

Compound in another assay: COc1cc2ncnc(Nc3cc(Br)c(O)c(Br)c3)c2cc1OC [WHI-P97]
The settings on record: top dose 10.24 µM; top dose inferred. How it is done: as §1

Compound in another assay: COc1cc2nccc(Oc3ccc(NC(=O)C4(C(=O)Nc5ccc(F)cc5)CC4)cc3)c2cc1OC [XL-184]
Conditions: top dose 5.12 µM; top dose inferred. How it is done: as §1

Compound in a further assay: CCC1=C[C@@H]2CN(C1)Cc1c([nH]c3ccccc13)[C@@](C(=O)OC)(c1cc3c(cc1OC)N(C)[C@H]1[C@@](O)(C(=O)OC)[C@H](OC(C)=O)[C@]4(CC)C=CCN5CC[C@]31[C@@H]54)C2 [Vinorelbine]
The settings on record: top dose 0.064 µM; top dose inferred. How it is done: as §1

Compound in another assay: O=c1cc(CN2CCOCC2)occ1OCCCCCSc1ccnc2cc(C(F)(F)F)ccc12 [EHT 1864]
Conditions: top dose 10 µM; top dose inferred. How it is done: as §1

Compound in another assay: C=CC(=O)Nc1cc(NC(=O)c2ccc(C)c(NC(=O)c3ccno3)c2)cc(C(F)(F)F)c1 [QL-XI-92]
The settings on record: top dose 10.24 µM; top dose inferred. As to the method: as §1

Compound in another assay: N=C(N)NC(=N)NCCc1ccccc1 [Phenformin]
The settings on record: top dose 4000 µM; top dose inferred. As to the method: as §1

Compound in the next assay: CNCc1ccc(-c2[nH]c3cc(F)cc4c3c2CCNC4=O)cc1 [AG-014699]
Conditions: top dose 5 µM; top dose inferred. How it is done:
as §1

As for NCI-H28 (mesothelioma, adherent), the AUC is 0.935 in the assay with NU-7441; 0.97 in the assay with WHI-P97; 0.965 with XL-184; 0.85 in the assay with Vinorelbine; 0.908 in the assay with EHT 1864; 0.947 in the assay with QL-XI-92. Moreover, the AUC with Phenformin was determined as 0.969; with AG-014699, 0.915. The IC50 is above 2 µM with NU-7441; above 10.2 µM in the assay with WHI-P97; above 5.12 µM with XL-184; above 0.064 µM with Vinorelbine; above 10 µM with EHT 1864; above 10.2 µM with QL-XI-92. The IC50 is above 4000 µM with Phenformin and above 5 µM with AG-014699.
“NCI-H520 (lung squamous cell carcinoma, adherent)”: the AUC with NU-7441 is 0.959; with WHI-P97, 0.892; in the assay with XL-184, 0.855; with Vinorelbine, 0.421; with EHT 1864, 0.961; in the assay with QL-XI-92 it was 0.885. Moreover, the AUC with Phenformin worked out at 0.735; in the assay with AG-014699 it was 0.96. Moreover, the IC50 in the assay with NU-7441 was above 2 µM; with WHI-P97 it was above 10.2 µM; with XL-184, 4.3 µM; with Vinorelbine, 0.00242 µM; with EHT 1864, above 10 µM; with QL-XI-92 it was above 10.2 µM. For the same cell line, the IC50 was 1200 µM with Phenformin and above 5 µM with AG-014699.
With NCI-H727 (lung carcinoid, adherent), the AUC was determined as 0.886 with NU-7441; 0.935 with WHI-P97; 0.977 with XL-184; 0.88 with Vinorelbine; 0.962 with EHT 1864; 0.959 with QL-XI-92. Besides, the AUC with Phenformin was 0.907; with AG-014699, 0.946. Also, the IC50 with NU-7441 is above 2 µM; with WHI-P97, above 10.2 µM; with XL-184, above 5.12 µM; with Vinorelbine it was above 0.064 µM; with EHT 1864, above 10 µM; with QL-XI-92, above 10.2 µM. Besides, the IC50 with Phenformin was above 4000 µM; in the assay with AG-014699, above 5 µM.
On to “NCI-H2085 (lung adenocarcinoma, adherent)”, for which the AUC with NU-7441 came out at 0.972; in the assay with WHI-P97, 0.874; with XL-184, 0.948; with Vinorelbine, 0.885; with EHT 1864 it was 0.986; in the assay with QL-XI-92, 0.952. For the same cell line, the figures for the AUC with Phenformin and with AG-014699 were 0.843 and 0.987, respectively. Moreover, the IC50 in the assay with NU-7441 is above 2 µM; in the assay with WHI-P97, above 10.2 µM; with XL-184 it was above 5.12 µM; in the assay with Vinorelbine, above 0.064 µM; with EHT 1864 it was above 10 µM; with QL-XI-92, above 10.2 µM. Besides, the IC50 with Phenformin is 3170 µM; with AG-014699, above 5 µM.
Consider NUGC-3 (stomach, adherent), for which the AUC with NU-7441 stood at 0.93; with WHI-P97, 0.923; with XL-184, 0.984; with Vinorelbine, 0.551; in the assay with EHT 1864 it was 0.979; with QL-XI-92 it was 0.983. For the same cell line, the AUC with Phenformin was found to be 0.869; with AG-014699, 0.908. In addition, the IC50 in the assay with NU-7441 is above 2 µM; with WHI-P97, above 10.2 µM; in the assay with XL-184 it was above 5.12 µM; with Vinorelbine it was 0.0056 µM; with EHT 1864, above 10 µM; in the assay with QL-XI-92 it was above 10.2 µM. Moreover, the IC50 with Phenformin is above 4000 µM; with AG-014699 it was above 5 µM.
As to OSC-19 (head and neck, adherent), the AUC was determined as 0.928 with NU-7441; 0.92 with WHI-P97; 0.902 with XL-184; 0.592 with Vinorelbine; 0.978 with EHT 1864; 0.987 with QL-XI-92. Moreover, the results for the AUC with Phenformin and with AG-014699 were 0.823 and 0.987, respectively. In addition, the IC50 with NU-7441 was above 2 µM; in the assay with WHI-P97, above 10.2 µM; in the assay with XL-184, above 5.12 µM; with Vinorelbine it was 0.00724 µM; in the assay with EHT 1864 it was above 10 µM; with QL-XI-92, above 10.2 µM. Also, the IC50 was 2490 µM with Phenformin and above 5 µM with AG-014699.
Regarding OVCAR-3 (ovary, adherent), the AUC turned out to be 0.966 with NU-7441; 0.986 with WHI-P97; 0.986 with XL-184; 0.564 with Vinorelbine; 0.969 in the assay with EHT 1864; 0.987 in the assay with QL-XI-92. Further, the AUC in the assay with Phenformin stood at 0.775; with AG-014699, 0.943. The IC50 was above 2 µM in the assay with NU-7441; above 10.2 µM with WHI-P97; above 5.12 µM in the assay with XL-184; 0.00608 µM in the assay with Vinorelbine; above 10 µM in the assay with EHT 1864; above 10.2 µM in the assay with QL-XI-92. The IC50 with Phenformin was 1750 µM; with AG-014699, above 5 µM.
Regarding PANC-10-05 (pancreas, adherent), the AUC with NU-7441 turned out to be 0.943; with WHI-P97, 0.93; with XL-184, 0.941; with Vinorelbine, 0.526; with EHT 1864 it was 0.916; in the assay with QL-XI-92, 0.969. Also, the AUC with Phenformin was 0.685; with AG-014699, 0.952. The IC50 was above 2 µM in the assay with NU-7441; above 10.2 µM in the assay with WHI-P97; above 5.12 µM in the assay with XL-184; 0.00481 µM with Vinorelbine; above 10 µM with EHT 1864; above 10.2 µM in the assay with QL-XI-92. Also, the IC50 with Phenformin is 964 µM; in the assay with AG-014699, above 5 µM.
